{
  "source": "ChEMBL document CHEMBL4888484",
  "about": "“Replenishing the malaria drug discovery pipeline: Screening and hit evaluation of the MMV Hit Generation Library 1 (HGL1) against asexual blood stage Plasmodium falciparum ,using a nano luciferase reporter read-out” (2022)",
  "note": "In all, about 150,000 compounds went through this assay and about 540 (0.36%) showed an effect of 50% or more. This is one part of the list.",
  "data": [
    {"system": "Plasmodium falciparum", "assay": "Primary screen in NF54 nanoGlo assay, in single point, at 2uM, 72h; a lower Z score goes with more inhibition", "assay_type": "functional, Erythrocyte", "details": "timepoint 72 hour", "units": {"% Inhibition": "%"}, "values": [
      {"smiles": "Cc1ccccc1Cn1c(C)c(N2CCOCC2)c(C)c1C(=O)NCc1ccc(F)cc1", "% Inhibition": -1, "Z score": 0.18},
      {"smiles": "Cc1oc(C(C)C)cc1C(=O)N1CC[C@](C)(O)[C@H](O)C1", "% Inhibition": -18, "Z score": 1.9},
      {"smiles": "O=C1NC[C@@H](C(=O)NCc2ccc(OC3CCCCC3)nc2)N1", "% Inhibition": 0, "Z score": -0.01},
      {"smiles": "Cc1ccnc(CNC(=O)c2oc(C)nc2C)c1", "% Inhibition": 8, "Z score": -0.74},
      {"smiles": "CC(CCc1ccccc1)NC(=O)C1COc2ccccc2O1", "note": "(stereo unspecified)", "% Inhibition": -14, "Z score": 2.63},
      {"smiles": "CCc1ccc(NC(=O)Cn2nc3c(Oc4cc(C)cc(C)c4)nc4ccccc4n3c2=O)cc1", "% Inhibition": -10, "Z score": 1.47},
      {"smiles": "CC(C(=O)c1ccccc1)C1(O)C(=O)N(CN2CCOCC2)c2ccccc21", "note": "(stereo unspecified)", "% Inhibition": 7, "Z score": -0.82},
      {"smiles": "COc1ccc(O)c([C@H](C)NCCCCn2ccnc2C)c1", "% Inhibition": -8, "Z score": 0.84},
      {"smiles": "CC[C@H](C)NC(=O)C1CCN(S(=O)(=O)c2cc(-c3noc(C)n3)ccc2Cl)CC1", "% Inhibition": -10, "Z score": 1.27},
      {"smiles": "c1ccc2c(c1)CC(N1CCC(c3nnc[nH]3)CC1)C2", "% Inhibition": -12, "Z score": 1.09},
      {"smiles": "O=C([C@@H]1CC=CCC1)N1CC=C(c2ccccc2)CC1", "% Inhibition": 2, "Z score": -0.32},
      {"smiles": "Cc1cc(N2CCC[C@@]3(CCC(=O)N(CCc4c[nH]cn4)C3)C2)ccn1", "% Inhibition": 1, "Z score": -0.12},
      {"smiles": "O=C(Cc1nnc(-c2cnccn2)o1)NCc1ccccc1", "% Inhibition": -11, "Z score": 1.14},
      {"smiles": "Cc1ccc([C@H]2CN(C(=O)CCn3ccc(C)n3)C[C@@H]2N(C)C)cc1", "% Inhibition": 11, "Z score": -0.98},
      {"smiles": "COCCn1nnnc1[C@]1(N(C)C)CCCN(S(=O)(=O)c2cc(F)cc(F)c2)C1", "% Inhibition": 7, "Z score": -1.2},
      {"smiles": "Cc1c(-c2noc(C(=O)NCCCc3ccccc3)n2)oc2c(C)cccc12", "% Inhibition": -7, "Z score": 0.87},
      {"smiles": "Cc1cc(NC(=O)c2ccc(COc3ccc4ccccc4c3)o2)nn1C", "% Inhibition": 30, "Z score": -1.16},
      {"smiles": "Cc1ncsc1CCN(C)c1ncnc2[nH]ncc12", "% Inhibition": -9, "Z score": 1.48},
      {"smiles": "CCCN(CCC)c1ccc(-c2nc(-c3ccccc3)no2)cn1", "% Inhibition": -9, "Z score": 1.56},
      {"smiles": "O=C(Cc1cccc2ccccc12)NC1CC(O)C(CO)C1", "note": "(stereo unspecified)", "% Inhibition": -2, "Z score": 0.34},
      {"smiles": "N#CC1(c2nc(-c3nccc(N)n3)no2)CCCCC1", "% Inhibition": 0, "Z score": -0.05},
      {"smiles": "CC(C)(C)NC(=O)CCC(=O)N1CC[C@H](n2cnc3ccccc32)C1", "% Inhibition": -4, "Z score": 0.88},
      {"smiles": "CC[C@@H](C(=O)NCCCOC)N(c1ccc(C)cc1)S(C)(=O)=O", "% Inhibition": -12, "Z score": 1.1}
    ]}
  ]
}
